These are yes or no findings as the source states them, for the method shown. Some binding calls cover weakened binding; strength is not graded here. For part of these data: Where a sequence is shown, tags or fusion partners need not be part of it.
Experiments:
Assay in all cases: two-hybrid; BLRF2-AD in MATa haploid yeast mated with MATα yeast carrying DB-human hybrid proteins of the human ORFeome v5.1; growth on selective media; primary screens done twice, hits sequenced and retested
[1] = molecular target: NLE1 (DB-human hybrid protein, human ORFeome v5.1) (human) (UniProt Q9NVX2)
[2] = molecular target: T1, SRPRB (DB-human hybrid protein, human ORFeome v5.1) (human) (UniProt Q9Y5M8)
T1 sequence: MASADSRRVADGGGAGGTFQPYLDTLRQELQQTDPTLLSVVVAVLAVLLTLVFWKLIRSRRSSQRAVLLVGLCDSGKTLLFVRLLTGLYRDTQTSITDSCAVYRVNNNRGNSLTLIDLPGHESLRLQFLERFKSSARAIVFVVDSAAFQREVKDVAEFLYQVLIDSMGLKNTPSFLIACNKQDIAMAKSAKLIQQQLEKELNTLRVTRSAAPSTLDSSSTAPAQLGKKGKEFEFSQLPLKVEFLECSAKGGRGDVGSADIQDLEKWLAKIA

Chains of the proteins cited; added tags and fusions are not shown.
UniProt Q9NVX2: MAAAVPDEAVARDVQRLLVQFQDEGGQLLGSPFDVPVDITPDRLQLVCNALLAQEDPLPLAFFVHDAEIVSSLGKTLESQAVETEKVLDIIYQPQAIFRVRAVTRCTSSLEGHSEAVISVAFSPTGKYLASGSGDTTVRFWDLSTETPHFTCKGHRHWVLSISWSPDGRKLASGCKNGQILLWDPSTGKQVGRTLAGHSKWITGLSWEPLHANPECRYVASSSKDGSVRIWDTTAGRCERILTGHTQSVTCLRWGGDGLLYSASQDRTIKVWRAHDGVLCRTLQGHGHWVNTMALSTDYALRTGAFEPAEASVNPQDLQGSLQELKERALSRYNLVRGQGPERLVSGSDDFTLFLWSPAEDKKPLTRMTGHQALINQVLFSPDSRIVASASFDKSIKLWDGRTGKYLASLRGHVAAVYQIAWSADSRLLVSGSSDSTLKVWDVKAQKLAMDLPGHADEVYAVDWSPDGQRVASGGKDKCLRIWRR
UniProt Q9UHP6: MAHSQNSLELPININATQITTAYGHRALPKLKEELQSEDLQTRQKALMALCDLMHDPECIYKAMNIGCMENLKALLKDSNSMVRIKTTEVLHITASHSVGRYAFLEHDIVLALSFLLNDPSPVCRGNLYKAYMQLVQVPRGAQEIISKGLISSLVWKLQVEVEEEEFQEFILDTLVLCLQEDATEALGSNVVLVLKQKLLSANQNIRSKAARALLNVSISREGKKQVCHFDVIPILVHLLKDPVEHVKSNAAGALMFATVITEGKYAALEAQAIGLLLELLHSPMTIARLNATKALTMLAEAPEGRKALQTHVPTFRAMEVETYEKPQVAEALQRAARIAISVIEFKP
UniProt Q9NPJ4: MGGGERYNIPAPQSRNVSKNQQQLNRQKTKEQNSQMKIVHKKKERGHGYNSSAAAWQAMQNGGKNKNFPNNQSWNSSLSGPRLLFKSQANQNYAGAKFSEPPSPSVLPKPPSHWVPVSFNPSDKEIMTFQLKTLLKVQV
UniProt P78362: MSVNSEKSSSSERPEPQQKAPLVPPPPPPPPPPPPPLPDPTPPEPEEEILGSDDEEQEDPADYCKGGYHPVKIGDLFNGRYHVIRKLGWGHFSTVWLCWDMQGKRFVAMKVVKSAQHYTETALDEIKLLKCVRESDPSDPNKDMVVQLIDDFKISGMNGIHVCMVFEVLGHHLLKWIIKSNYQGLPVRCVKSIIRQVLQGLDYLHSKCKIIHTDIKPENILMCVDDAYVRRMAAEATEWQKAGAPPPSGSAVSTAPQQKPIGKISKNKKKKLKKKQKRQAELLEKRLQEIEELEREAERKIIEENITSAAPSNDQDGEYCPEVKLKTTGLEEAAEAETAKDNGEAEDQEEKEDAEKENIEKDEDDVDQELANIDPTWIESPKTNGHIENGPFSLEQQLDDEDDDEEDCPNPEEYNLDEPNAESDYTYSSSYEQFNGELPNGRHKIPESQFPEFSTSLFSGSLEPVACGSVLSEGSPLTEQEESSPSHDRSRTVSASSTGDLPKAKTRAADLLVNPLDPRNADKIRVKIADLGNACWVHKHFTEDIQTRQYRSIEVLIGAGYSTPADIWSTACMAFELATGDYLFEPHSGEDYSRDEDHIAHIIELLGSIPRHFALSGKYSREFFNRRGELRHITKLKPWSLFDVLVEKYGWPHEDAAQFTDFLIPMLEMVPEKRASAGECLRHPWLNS
UniProt Q6P280: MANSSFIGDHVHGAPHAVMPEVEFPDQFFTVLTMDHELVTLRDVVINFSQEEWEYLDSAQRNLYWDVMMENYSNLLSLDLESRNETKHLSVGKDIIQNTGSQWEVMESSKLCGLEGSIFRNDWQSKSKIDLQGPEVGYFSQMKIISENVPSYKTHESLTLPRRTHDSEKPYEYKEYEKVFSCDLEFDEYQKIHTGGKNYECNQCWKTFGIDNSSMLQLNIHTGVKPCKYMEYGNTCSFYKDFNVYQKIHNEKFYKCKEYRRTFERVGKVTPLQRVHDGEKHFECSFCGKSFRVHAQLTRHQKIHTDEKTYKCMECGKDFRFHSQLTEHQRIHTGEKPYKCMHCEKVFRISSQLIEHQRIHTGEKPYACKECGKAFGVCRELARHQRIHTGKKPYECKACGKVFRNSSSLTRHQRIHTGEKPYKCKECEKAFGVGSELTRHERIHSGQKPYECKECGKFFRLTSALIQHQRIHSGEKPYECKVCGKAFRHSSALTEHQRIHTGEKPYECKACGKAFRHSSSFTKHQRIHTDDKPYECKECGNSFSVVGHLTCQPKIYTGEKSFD
UniProt P03197: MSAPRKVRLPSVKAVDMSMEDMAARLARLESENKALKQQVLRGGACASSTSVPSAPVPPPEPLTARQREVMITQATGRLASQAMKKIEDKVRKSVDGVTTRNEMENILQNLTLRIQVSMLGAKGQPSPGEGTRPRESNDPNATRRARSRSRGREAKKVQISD

[3] = molecular target: RTDR1 (DB-human hybrid protein, human ORFeome v5.1) (human) (UniProt Q9UHP6)
[4] = molecular target: PNRC2 (DB-human hybrid protein, human ORFeome v5.1) (human) (UniProt Q9NPJ4)
[5] = molecular target: SRPK2 (DB-human hybrid protein, human ORFeome v5.1) (human) (UniProt P78362)
[6] = molecular target: T2, SLC6A13 (DB-human hybrid protein, human ORFeome v5.1) (human) (UniProt Q9NSD5)
T2 sequence: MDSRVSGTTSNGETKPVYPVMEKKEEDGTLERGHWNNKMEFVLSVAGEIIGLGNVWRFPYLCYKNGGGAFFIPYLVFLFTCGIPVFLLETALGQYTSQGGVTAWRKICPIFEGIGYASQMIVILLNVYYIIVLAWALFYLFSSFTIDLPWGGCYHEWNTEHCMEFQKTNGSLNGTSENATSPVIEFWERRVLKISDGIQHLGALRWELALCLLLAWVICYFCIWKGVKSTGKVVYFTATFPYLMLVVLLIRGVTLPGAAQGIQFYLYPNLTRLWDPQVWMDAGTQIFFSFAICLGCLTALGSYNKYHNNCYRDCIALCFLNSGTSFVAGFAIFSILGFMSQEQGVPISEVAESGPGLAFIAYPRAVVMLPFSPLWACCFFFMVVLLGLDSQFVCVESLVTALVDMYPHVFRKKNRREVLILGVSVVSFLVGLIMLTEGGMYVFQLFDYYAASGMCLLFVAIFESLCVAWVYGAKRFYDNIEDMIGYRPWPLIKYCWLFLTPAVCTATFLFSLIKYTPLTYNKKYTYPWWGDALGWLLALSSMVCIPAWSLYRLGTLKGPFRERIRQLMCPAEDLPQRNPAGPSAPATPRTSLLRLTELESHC

[7] = molecular target: T3, SNX14 (DB-human hybrid protein, human ORFeome v5.1) (human) (UniProt Q9Y5W7)
T3 sequence: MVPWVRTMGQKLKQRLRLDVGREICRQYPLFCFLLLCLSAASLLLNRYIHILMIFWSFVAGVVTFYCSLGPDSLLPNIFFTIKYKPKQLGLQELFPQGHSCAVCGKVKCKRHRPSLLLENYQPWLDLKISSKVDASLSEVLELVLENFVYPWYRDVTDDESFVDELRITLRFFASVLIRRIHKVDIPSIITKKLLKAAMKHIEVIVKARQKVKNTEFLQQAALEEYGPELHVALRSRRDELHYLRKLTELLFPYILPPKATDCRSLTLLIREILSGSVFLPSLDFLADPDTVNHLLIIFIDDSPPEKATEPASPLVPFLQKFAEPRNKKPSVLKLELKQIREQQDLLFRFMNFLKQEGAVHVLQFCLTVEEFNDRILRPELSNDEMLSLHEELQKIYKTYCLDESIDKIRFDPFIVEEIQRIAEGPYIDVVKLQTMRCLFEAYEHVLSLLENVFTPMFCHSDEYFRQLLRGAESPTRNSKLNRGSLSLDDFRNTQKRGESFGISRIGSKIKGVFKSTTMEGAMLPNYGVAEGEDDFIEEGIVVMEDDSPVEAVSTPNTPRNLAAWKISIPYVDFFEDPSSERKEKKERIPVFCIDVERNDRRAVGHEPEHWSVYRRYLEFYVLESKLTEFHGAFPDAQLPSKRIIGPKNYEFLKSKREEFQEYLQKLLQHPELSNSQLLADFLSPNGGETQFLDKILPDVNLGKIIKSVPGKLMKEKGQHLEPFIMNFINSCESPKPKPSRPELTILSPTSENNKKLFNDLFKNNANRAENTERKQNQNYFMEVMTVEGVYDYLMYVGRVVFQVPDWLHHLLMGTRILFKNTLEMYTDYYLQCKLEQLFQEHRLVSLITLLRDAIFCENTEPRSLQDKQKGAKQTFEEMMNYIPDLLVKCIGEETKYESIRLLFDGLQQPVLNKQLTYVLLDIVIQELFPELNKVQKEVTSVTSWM

[8] = molecular target: ZNF529 (DB-human hybrid protein, human ORFeome v5.1) (human) (UniProt Q6P280)
[9] = molecular target: T4, CCL3L3 (DB-human hybrid protein, human ORFeome v5.1) (human) (UniProt P16619)
T4 sequence: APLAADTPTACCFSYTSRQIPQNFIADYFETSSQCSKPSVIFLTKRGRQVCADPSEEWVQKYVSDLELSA

Measured: binding

BLRF2 yeast two-hybrid fusions (gal4-AD-BLRF2 and gal4-DB-BLRF2) (from UniProt P03197 1-162)
binds: all assays above

— PMC3541133
